Assay results: the supplement of paper PMC3334620
Whole data set: some 33,000 sequences, median “E-score (-0.5 to 0.5)” near -0.035, cut for the highest 2% near 0.35. The list shows a part of the results.

Each sequence was assayed against T1, Pdr3 (UniProt P33200) (assay: PBM E-score (8-mer binding enrichment) (E-score (-0.5 to 0.5)); higher = stronger / more preferred TF binding; most listed sequences are background and not binding sites). Conditions: protein concentration: 200 nM; construct: GST-full length.
T1 sequence: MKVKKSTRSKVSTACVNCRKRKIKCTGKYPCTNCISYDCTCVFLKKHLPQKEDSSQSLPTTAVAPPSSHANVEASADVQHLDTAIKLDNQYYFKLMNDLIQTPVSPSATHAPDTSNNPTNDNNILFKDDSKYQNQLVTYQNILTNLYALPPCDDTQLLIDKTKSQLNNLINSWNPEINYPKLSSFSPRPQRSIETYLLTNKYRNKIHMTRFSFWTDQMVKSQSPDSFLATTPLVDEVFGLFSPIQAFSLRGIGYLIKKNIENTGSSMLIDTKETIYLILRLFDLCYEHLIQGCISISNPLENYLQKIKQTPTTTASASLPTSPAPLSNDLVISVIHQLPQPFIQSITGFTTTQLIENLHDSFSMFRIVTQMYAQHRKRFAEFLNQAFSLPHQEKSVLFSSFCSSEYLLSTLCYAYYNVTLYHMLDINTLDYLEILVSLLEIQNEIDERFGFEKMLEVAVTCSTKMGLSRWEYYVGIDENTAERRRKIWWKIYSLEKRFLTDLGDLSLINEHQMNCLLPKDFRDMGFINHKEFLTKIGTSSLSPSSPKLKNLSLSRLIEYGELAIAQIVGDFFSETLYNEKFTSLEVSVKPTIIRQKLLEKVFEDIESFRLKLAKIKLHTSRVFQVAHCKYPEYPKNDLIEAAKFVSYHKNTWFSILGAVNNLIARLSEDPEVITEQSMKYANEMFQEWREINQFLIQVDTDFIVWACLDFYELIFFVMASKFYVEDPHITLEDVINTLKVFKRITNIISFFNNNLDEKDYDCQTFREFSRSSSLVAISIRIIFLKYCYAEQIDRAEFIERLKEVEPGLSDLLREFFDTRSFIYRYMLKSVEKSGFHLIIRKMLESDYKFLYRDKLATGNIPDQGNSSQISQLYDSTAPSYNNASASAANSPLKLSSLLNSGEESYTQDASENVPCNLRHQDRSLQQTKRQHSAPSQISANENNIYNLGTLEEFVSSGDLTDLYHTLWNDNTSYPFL
Outline: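 Bound GST-tagged yeast transcription factors, applied at about 100-200 nM to double-stranded universal all-10-mer Agilent arrays, were detected with fluorescent anti-GST. Scans were normalised with masliner. A modified Wilcoxon-Mann-Whitney statistic, the E-score, was assigned to each ungapped eight-base word pooled with its reverse complement by the Universal PBM Analysis Suite.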

Sequence | PBM E-score
ACGCTATG | -0.187
AAAACGTA | -0.164
CGTTCACC | -0.0232
ATTGATTG | 0.196
GCTTTAAC | -0.0882
ATAAATTG | 0.213
ATCCAGGG | -0.183
AGTCCGGG | 0.301
CGTCGCCA | -0.134
CTGCCTAC | -0.0485
GGACCCAA | 0.0523
GCTATTCA | 0.0956
TAACCGTA | -0.057
CCCGCGCG | 0.382
GAGAGAAA | -0.101
GCCAGCTA | -0.138
CGGGTGAA | 0.279
GGCCGGAC | 0.216
AAGCTACC | 0.115
TACTCGCA | 0.0266
ACACTCAA | 0.0057
GTTACGGA | 0.266

Sequence | PBM E-score
GGCCCGAC | 0.119
AACTCTTA | -0.0657
GACATCGA | 0.00193
CGCACCGC | 0.162
ATCGAGGA | 0.00127
ATGTATTA | -0.096
GCTATACC | 0.0194
AGCACCTG | -0.241
CGCTCACC | 0.0448
ACCTGCCC | 0.18
AATGCCAA | -0.0918
AACGGTCC | 0.139
AAACAAGC | -0.0204
AAAGCAGT | 0.0133
GAGACAAC | 0.00582
ACTCAGAA | -0.0574
AGGTTAAT | -0.0492
CTTATCTC | -0.0426
AACGAGGG | -0.175
CAGACCTG | -0.103
GAGTGTCC | 0.11
AATAACCT | -0.127

Sequence | PBM E-score
AGGCATAC | -0.0587
ACATTCAA | 0.0599
AGCTTACC | -0.0699
GAGGTGAC | 0.11
CCATCATA | -0.0567
CGGAATGC | 0.434
ACGTCACG | -0.0656
AATGGCCC | -0.177
ACTCTCTG | -0.204
ATTTGTTC | 0.221
CGCACGCC | 0.0867
GGTCGTAA | -0.0241
AAGGTGCG | -0.0376
CCGGGACA | 0.376
GCTGTACC | -0.00444
AGGATTAG | -0.213
CTCTTTTC | -0.18
CTGAGAAA | -0.236
GACGTGTA | -0.126
AACACGAA | 0.0946
CTCCCGGA | 0.386
AAGATGCG | 0.0797

Sequence | PBM E-score
AGAGGACT | -0.288
AGGTTTAC | -0.267
ATCCGATA | 0.298
GGGTATCA | -0.0831
CACGACAA | -0.102
CTCCCCTC | 0.0991
AAGTACAA | -0.14
GCTGAAAA | 0.0779
AACACCAC | 0.0781
AGTAGTCA | -0.155
CGGATCCA | 0.413
GAAGGCTA | -0.142
CTATGAAC | -0.156
ATGCTTGA | -0.05
ATCAGCAA | 0.0503
AAAGACCC | -0.00528
ATGCGCGA | 0.0846
TCGATCCA | -0.12
ACTGGAGA | -0.17
ATCACAAG | -0.094
ACGGCTAC | 0.0619
CAGTTAAG | 0.0368

Sequence | PBM E-score
CCGGACCC | 0.379
AAGGACGC | -0.0165
ATGAAAAA | 0.0268
AGTTTCAG | -0.0792
ACCGGTCT | -0.0977
AAGTGGGT | -0.0079
AAGCGCGT | -0.113
AAGAGTAG | -0.102
ACATTCGC | 0.0323
ACCAACGT | -0.171
CGTGAAGC | -0.0378
TGAGGAAA | -0.0997
GTAGGCTA | -0.259
ATACAACA | -0.145
ACAAACGG | 0.247
AGAGCTCC | 0.101
ACTCACTA | -0.107
ATCGGCAG | 0.0695
GACAACGA | 0.0946
ATCAATAC | -0.0781
GAGATGCC | 0.0537
